Results on 2 molecules are retold here after paper PMC9626503.

The chains behind the UniProt entries cited, without tags or fusion partners.
UniProt Q15291: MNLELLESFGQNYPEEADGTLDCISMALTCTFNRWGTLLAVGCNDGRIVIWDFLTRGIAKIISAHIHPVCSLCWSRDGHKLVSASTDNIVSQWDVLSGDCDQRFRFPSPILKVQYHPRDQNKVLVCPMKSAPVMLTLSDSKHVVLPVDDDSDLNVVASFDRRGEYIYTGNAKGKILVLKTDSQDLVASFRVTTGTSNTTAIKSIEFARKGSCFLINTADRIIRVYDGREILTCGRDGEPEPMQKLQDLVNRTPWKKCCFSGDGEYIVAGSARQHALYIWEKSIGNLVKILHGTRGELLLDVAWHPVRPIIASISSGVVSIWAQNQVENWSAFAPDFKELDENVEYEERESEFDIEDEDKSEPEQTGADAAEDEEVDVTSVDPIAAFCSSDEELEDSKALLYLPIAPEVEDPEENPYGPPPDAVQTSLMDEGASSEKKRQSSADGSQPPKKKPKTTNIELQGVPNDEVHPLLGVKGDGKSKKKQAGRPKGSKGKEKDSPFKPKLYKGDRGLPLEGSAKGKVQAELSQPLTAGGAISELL
UniProt O14686: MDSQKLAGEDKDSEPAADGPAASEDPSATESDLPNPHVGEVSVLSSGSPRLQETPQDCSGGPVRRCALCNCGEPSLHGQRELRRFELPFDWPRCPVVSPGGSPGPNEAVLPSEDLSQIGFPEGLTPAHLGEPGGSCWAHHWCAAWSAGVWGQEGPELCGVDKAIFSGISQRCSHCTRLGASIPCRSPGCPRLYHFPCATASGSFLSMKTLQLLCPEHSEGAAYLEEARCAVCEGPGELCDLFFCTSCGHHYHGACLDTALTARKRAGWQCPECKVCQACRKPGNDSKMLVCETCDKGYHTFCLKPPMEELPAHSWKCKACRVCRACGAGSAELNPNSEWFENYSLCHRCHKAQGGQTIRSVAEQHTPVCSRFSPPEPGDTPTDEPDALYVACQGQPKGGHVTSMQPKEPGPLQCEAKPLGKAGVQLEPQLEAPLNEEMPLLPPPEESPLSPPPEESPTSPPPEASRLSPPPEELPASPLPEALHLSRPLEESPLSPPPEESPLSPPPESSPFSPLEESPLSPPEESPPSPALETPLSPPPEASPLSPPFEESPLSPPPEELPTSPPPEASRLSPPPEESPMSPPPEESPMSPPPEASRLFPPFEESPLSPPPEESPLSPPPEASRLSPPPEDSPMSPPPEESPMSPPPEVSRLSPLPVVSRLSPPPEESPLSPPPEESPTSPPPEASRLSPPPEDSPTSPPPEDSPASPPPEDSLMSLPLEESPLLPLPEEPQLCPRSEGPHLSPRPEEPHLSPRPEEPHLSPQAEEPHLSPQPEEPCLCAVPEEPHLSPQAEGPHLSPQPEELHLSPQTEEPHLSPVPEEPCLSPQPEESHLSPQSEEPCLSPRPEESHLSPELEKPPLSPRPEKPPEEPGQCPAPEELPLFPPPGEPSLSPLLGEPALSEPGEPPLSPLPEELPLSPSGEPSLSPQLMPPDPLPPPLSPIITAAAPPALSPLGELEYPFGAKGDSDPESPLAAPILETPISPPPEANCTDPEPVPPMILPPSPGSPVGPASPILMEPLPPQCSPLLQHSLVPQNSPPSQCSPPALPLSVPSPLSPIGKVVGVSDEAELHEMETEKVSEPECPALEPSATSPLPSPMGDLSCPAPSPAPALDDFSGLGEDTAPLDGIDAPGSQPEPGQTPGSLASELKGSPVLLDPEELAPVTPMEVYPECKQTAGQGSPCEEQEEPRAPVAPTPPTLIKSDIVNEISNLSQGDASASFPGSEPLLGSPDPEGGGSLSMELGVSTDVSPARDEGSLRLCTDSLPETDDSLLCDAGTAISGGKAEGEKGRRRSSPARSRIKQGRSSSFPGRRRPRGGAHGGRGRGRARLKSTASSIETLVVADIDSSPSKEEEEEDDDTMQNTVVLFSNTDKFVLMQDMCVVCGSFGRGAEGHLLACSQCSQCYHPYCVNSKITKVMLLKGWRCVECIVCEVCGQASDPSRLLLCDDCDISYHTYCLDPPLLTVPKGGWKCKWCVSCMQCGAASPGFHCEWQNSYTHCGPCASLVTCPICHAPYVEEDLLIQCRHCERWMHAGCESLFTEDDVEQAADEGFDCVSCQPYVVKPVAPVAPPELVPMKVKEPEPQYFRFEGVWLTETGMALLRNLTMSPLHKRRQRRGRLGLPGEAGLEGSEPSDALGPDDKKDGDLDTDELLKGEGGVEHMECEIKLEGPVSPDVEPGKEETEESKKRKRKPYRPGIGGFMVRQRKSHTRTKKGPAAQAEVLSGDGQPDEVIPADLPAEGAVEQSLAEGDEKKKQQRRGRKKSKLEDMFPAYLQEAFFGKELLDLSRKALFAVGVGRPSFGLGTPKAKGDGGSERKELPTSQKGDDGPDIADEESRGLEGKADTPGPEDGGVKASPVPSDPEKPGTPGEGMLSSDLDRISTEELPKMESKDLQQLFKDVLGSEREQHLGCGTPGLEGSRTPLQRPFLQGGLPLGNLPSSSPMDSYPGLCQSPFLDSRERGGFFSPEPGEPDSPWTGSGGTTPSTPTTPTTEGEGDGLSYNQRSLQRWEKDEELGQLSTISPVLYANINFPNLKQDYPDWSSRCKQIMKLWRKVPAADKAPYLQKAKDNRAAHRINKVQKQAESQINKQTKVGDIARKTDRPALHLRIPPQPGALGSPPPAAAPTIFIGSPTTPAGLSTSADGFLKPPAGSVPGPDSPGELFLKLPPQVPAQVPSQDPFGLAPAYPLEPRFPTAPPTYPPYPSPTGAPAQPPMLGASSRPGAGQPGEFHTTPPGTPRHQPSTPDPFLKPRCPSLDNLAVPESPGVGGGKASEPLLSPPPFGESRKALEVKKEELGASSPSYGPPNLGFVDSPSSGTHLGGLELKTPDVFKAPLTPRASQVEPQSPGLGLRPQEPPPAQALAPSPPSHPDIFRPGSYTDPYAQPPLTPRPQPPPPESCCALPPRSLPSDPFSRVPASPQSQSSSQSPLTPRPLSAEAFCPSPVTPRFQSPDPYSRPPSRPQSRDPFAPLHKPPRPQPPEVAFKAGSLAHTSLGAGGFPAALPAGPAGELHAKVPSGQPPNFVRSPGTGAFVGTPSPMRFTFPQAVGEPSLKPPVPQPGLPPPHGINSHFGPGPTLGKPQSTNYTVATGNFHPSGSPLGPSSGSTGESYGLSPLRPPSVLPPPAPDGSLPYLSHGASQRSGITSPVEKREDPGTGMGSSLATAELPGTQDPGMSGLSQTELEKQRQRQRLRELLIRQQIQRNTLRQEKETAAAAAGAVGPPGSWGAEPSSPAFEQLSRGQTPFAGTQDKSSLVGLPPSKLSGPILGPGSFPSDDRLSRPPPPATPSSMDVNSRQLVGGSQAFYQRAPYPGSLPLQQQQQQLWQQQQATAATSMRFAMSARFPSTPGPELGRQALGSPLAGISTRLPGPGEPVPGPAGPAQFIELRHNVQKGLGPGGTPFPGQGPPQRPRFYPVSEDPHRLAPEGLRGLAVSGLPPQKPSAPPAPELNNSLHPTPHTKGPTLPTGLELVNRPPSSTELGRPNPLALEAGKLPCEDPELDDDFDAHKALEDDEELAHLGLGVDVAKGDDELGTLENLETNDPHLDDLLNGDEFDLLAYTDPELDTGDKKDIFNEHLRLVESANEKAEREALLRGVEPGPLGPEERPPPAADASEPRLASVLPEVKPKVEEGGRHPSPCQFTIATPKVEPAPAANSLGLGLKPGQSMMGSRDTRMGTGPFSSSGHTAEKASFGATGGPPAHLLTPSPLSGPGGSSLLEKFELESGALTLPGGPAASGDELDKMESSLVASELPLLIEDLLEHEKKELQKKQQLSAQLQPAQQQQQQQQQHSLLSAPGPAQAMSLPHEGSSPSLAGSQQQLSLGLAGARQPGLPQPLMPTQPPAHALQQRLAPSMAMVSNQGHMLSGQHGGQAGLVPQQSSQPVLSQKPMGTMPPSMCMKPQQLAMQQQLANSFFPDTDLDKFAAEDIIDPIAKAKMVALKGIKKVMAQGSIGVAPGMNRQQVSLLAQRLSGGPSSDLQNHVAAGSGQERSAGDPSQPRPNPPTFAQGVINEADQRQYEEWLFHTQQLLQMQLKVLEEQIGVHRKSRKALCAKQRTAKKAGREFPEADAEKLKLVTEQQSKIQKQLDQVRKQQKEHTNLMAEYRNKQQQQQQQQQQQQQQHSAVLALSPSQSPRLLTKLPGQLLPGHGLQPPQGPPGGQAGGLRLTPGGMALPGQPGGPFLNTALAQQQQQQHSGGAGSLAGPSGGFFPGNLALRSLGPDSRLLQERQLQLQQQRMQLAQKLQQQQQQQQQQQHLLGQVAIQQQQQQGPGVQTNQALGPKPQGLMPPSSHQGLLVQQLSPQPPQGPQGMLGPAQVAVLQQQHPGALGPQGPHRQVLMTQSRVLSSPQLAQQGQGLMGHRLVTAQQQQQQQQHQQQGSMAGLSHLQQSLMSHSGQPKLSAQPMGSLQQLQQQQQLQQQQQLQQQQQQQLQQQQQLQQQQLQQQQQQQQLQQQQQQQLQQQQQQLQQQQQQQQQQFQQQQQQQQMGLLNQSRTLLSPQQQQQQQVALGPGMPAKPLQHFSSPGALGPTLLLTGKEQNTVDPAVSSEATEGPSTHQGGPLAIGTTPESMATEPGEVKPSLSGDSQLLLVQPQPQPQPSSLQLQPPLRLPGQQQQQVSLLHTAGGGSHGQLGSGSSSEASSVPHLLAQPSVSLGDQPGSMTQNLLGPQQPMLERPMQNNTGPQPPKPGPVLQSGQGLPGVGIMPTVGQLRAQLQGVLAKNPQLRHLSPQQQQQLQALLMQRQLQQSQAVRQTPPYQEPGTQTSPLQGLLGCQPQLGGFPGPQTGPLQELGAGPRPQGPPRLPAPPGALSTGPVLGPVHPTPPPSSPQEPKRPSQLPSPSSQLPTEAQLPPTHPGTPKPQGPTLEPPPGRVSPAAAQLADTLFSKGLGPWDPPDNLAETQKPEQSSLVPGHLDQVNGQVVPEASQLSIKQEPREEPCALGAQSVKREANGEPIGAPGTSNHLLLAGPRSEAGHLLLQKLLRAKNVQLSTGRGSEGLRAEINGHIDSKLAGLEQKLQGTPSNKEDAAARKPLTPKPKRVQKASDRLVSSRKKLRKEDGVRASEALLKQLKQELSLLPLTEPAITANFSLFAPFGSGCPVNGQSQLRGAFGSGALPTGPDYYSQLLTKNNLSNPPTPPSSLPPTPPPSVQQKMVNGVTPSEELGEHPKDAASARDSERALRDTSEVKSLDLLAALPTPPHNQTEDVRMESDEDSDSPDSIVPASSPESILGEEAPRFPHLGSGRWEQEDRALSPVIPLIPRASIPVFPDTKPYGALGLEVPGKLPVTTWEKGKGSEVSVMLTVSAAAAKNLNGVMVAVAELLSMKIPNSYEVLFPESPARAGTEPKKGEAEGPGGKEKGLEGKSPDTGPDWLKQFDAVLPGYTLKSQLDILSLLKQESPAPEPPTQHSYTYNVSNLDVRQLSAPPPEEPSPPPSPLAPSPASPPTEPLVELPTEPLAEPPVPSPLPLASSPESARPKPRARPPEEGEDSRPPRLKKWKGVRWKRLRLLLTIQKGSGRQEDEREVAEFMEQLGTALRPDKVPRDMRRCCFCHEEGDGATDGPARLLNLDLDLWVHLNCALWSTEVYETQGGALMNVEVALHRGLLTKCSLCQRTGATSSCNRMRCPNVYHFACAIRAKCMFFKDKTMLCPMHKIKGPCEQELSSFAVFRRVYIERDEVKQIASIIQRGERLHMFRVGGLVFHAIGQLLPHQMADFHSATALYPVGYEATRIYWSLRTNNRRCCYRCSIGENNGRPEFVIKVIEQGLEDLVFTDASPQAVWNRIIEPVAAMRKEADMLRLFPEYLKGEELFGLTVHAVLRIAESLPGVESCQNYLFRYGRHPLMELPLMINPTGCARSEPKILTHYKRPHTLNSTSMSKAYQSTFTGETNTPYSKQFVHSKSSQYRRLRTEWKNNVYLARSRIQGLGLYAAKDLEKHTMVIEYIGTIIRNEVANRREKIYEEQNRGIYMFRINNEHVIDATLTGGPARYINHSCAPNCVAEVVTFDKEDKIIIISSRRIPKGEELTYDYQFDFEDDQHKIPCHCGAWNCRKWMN

For test [1], the target named is endogenous RbBP5 (human (endogenous in HEK293, HMLE, MDA-MB-231, SUM1315, MDA-MB-436 and patient tumors)) (UniProt Q15291). Nature of the test: co-IP; IP of endogenous RbBP5 (IgG control) from MDA-MB-231, SUM1315 and MDA-MB-436 lysates; blot with anti-FOXQ1 antibody.
Test [2] has the same target. The test can be described thus: co-IP; IP of RbBP5 (IgG control) from patient tumor lysates (lung, ovarian, three TNBC); tissue extracted in 2% SDS for 10 min at 70 °C; blot with anti-FOXQ1 antibody.
The target of test [3] is KMT2A/MLL1 (human (endogenous in HMLE)) (UniProt Q03164). The test can be described thus: co-IP; IP of each endogenous KMT2/MLL enzymatic subunit (IgG control) from HMLE/FOXQ1 lysate; blot with anti-V5 antibody for FOXQ1.
The target in test [4] is KMT2B/MLL2 (human (endogenous in HMLE)) (UniProt Q9UMN6). The description is as above.
In test [5] the target is KMT2C/MLL3 (human (endogenous in HMLE)) (UniProt Q8NEZ4). The test is described as above.
For test [6], the target named is KMT2D/MLL4 (human (endogenous in HMLE)) (UniProt O14686). The test is described as above.
Test [7] concerns the target KMT2F/SET1A (human (endogenous in HMLE)) (UniProt O15047). Described as above.
Test [8] deals with KMT2G/SET1B (human (endogenous in HMLE)) (UniProt Q9UPS6). Described as above.

These are yes or no findings as the source states them, for the method shown. Binding seen in cells or lysates may run through a third protein. Some binding calls cover weakened binding; strength is not graded here. For some assays here: Tags and fused reporters may be left off the sequences shown.

B1: endogenous FOXQ1 (protein, UniProt Q9C009 1-403)
chain: MKLEVFVPRAAHGDKQGSDLEGAGGSDAPSPLSAAGDDSLGSDGDCAANSPAAGGGARDTQGDGEQSAGGGPGAEEAIPAAAAAAVVAEGAEAGAAGPGAGGAGSGEGARSKPYTRRPKPPYSYIALIAMAIRDSAGGRLTLAEINEYLMGKFPFFRGSYTGWRNSVRHNLSLNDCFVKVLRDPSRPWGKDNYWMLNPNSEYTFADGVFRRRRKRLSHRAPVPAPGLRPEEAPGLPAAPPPAPAAPASPRMRSPARQEERASPAGKFSSSFAIDSILRKPFRSRRLRDTAPGTTLQWGAAPCPPLPAFPALLPAAPCRALLPLCAYGAGEPARLGAREAEVPPTAPPLLLAPLPAAAPAKPLRGPAAGGAHLYCPLRLPAALQAASVRRPGPHLPYPVETLLA
Take B1: the binding result in test [1] and in test [2] was “binds” each time.

B2: FOXQ1 wild type with C-terminal V5-epitope tag (protein, UniProt Q9C009 1-403)
chain: B1 chain
For the molecule B2, the binding entry in test [3] is recorded as “binds”; in test [4] it was “no binding”; in test [5], “no binding”; in test [6] it was “no binding”; in test [7], “no binding”; in test [8], “no binding”.
